# Experimental data from the supplement of paper PMC6531468.
# This is one part of the list. Read counts after selection give these values, which scatter widely. Scores sum up all selected molecules that hold the word; the word was not tested alone.
# Tested on: IMP3 KH1-2
# Assay: 6-mer SELEX enrichment z-score vs GST control; IMP3 is the RNA-binding protein IGF2BP3; higher = more enriched by binding
# Settings: construct: KH1-2 (164-376); SELEX round: R4
# Method: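 SELEX-seq with GST-tagged IMP3 KH1-2 (Pro164-Phe376) and an N40 RNA pool, round 4 (stringent 300/600 mM KCl washes). 6-mer z-score of sequence-tag enrichment normalised to the corresponding GST SELEX round; RNA k-mers written as DNA (T for U).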
# IMP3 KH1-2, sequence (chain, as listed by the source): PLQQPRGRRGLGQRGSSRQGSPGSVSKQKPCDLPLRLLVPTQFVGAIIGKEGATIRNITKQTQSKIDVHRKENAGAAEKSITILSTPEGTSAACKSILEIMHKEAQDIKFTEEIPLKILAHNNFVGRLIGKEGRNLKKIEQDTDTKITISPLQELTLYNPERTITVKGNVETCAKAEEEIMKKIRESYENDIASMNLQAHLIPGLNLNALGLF
row,Sequence,6-mer SELEX enrichment z-score
1,GGGTTA,0.222
2,TATTGG,0.253
3,ATGTTA,0.184
4,AGGGTA,-0.084
5,TCACTT,1.06
6,TACAGT,0.851
7,CGACAT,-0.214
8,AGTATT,0.073
9,CCTTGG,-0.41
10,TCTGCC,-0.108
11,AGTAGA,-0.258
12,GTACCG,-0.865
13,ATACCG,0.167
14,CCAGTT,0.095
15,TTCCGT,0.677
16,ACCCCT,-0.492
17,TCTCGC,-0.387
18,GATAAC,0.564
19,CGATCT,-0.481
20,CTGCCA,0.369

row,Sequence,6-mer SELEX enrichment z-score
1,ACACTG,1.28
2,GTTCAA,-0.002
3,TGTGTC,-0.115
4,GTAAAA,-0.748
5,GCGATA,-0.241
6,CGTTCC,-0.284
7,CGTTAC,-0.264
8,TCTCAC,0.14
9,TATCCC,-0.532
10,AGTGCC,-0.904
11,CATGCC,-0.208
12,ATCGTG,-0.637
13,GCGTGG,-1.74
14,CGGATG,0.085
15,ACAGAG,-0.225
16,TGCGAA,-0.815
17,ATAAGC,0.047
18,CACAAC,1.56
19,ATCCTA,-0.158
20,GCTTTA,0.45

# Tested on: IMP3 KH3-4
# Sequence (chain, as listed by the source): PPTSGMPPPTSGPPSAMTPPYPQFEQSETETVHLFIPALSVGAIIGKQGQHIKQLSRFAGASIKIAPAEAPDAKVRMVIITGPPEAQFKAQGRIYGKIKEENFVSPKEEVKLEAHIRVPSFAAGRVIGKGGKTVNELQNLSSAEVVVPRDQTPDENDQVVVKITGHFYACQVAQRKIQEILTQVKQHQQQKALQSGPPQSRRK
# Assay: as above
# Settings: construct: KH3-4 (377-579); SELEX round: R4
# Method: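 SELEX-seq with GST-tagged IMP3 KH3-4 (Pro377-Lys579) and an N40 RNA pool, round 4. 6-mer z-score of sequence-tag enrichment normalised to the corresponding GST SELEX round; RNA k-mers written as DNA (T for U).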
row,Sequence,6-mer SELEX enrichment z-score
1,GGGTTA,0.395
2,TATTGG,0.444
3,ATGTTA,0.599
4,AGGGTA,0.069
5,TCACTT,0.74
6,TACAGT,0.726
7,CGACAT,-0.396
8,AGTATT,0.37
9,CCTTGG,-0.552
10,TCTGCC,-0.516
11,AGTAGA,0.055
12,GTACCG,-1.08
13,ATACCG,-0.211
14,CCAGTT,-0.027
15,TTCCGT,0.263
16,ACCCCT,-1.09
17,TCTCGC,-0.455
18,GATAAC,0.958
19,CGATCT,-0.553
20,CTGCCA,-0.273

row,Sequence,6-mer SELEX enrichment z-score
1,ACACTG,0.498
2,GTTCAA,0.032
3,TGTGTC,-0.039
4,GTAAAA,0.088
5,GCGATA,0.064
6,CGTTCC,-0.607
7,CGTTAC,-0.406
8,TCTCAC,-0.356
9,TATCCC,-0.889
10,AGTGCC,-1.08
11,CATGCC,-0.845
12,ATCGTG,-0.498
13,GCGTGG,-1.62
14,CGGATG,0.202
15,ACAGAG,-0.204
16,TGCGAA,-0.713
17,ATAAGC,0.397
18,CACAAC,-0.139
19,ATCCTA,-0.312
20,GCTTTA,0.7
